# Assay results taken from paper PMC12040169 (PLOS Biology, 2025).
# The other results are listed elsewhere or left out.
# Test system: T1, C. trachomatis L2/434/Bu expressing GFP (CTL2-GFP)
# T1 construct: L2/434/Bu GFP intracellular growth in HeLa cells
# Design: species or system HeLa; C. trachomatis total inclusion area by high-content imaging, normalised to DMSO
# Details: total inclusion area; 28.5 h, 10 µM; inhibitor
# How it was run: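 Imaging read-out: GFP inclusions and Hoechst nuclei captured by high-content imaging after fixation. Inclusion area/number = chlamydial growth; nuclei count = host cell viability. MIC calculated per earlier method.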
row,SMILES,% of control remaining
1,COc1ccc(-c2ccc(C(=O)NCCN3CCOCC3)c(N(C)C(C)=O)n2)cc1 [CBK076545],87.4108
2,COc1ccccc1-c1cnc(N)c(N2CCC(C(=O)O)CC2)n1 [CBK064082],122.995
3,Cc1c(F)cccc1CNCC1CCN(C(=O)OC(C)(C)C)CC1 [CBK056717],109.616
4,Cc1nc2cc(OCc3nc(C(=O)NCC4CCOC4)co3)ccc2s1 (stereo not shown) [CBK307508],54.9743
5,COc1cc(CCN2C(=O)c3cccc4cccc(c34)C2=O)c(S(=O)(=O)N2CCCC2)cc1OC [CBK264947],88.258
6,COc1ccc(Cn2c(-c3ccc(OC)c(O)c3)nc3ccccc32)cc1O [CBK263370],85.8518
7,NS(=O)(=O)c1ccc(CCNC(=O)/C=C/c2ccc([N+](=O)[O-])cc2)cc1 [CBK265683],79.9747
8,CNS(=O)(=O)c1cc(C(=O)O)ccc1OC [CBK270179],88.1301
9,Cc1cc(Cl)cc(Cl)c1S(=O)(=O)Nc1cccc(C(=O)O)c1 [CBK155682],126.921
10,Cc1cc(=O)n2c3c(cc(S(=O)(=O)NC4CC4)cc13)CCC2 [CBK307572],87.5256
11,NS(=O)(=O)c1ccc(C(=O)N2CCC3(CCN(C(=O)c4ccoc4)C3)C2)cc1 (stereo not shown) [CBK131736],66.8779
12,Cc1ccc(CNC(=O)CSc2nc(C)c(C)c(=O)[nH]2)cc1 [CBK287735],130.457
13,CCc1ccc(OC)c(S(=O)(=O)NC2CC(C)(C)NC(C)(C)C2)c1 [CBK270098],88.7039
14,COc1ccc(C(=O)c2oc3cc(NC(=O)c4cccnc4)ccc3c2C)cc1 [CBK287652],90.0503
15,COc1cc(Cl)c(C)cc1NC(=O)C1CC=CCC1C(=O)O (stereo not shown) [CBK296667],65.1938
16,Cc1cccn2cc(CCNC(=O)CN3Cc4ccccc4C3)nc12 [CBK305166],62.446
17,O=C(Nc1cccc(NS(=O)(=O)c2ccc(Cl)cc2)c1)c1ccco1 [CBK265956],94.189
18,Cc1ccc2oc(-c3ccc(O)cc3)nc2c1 [CBK093878],70.0132
19,Cc1csc2c(C3CCN(C(=O)c4cscn4)CC3)nc(C)n12 [CBK285246],70.6311
20,OC1(c2cccnc2F)CCN(Cc2ccc(F)c(F)c2)CC1 [CBK284370],90.5164
21,COc1ccccc1CCC(=O)Nc1cnn(C)c1 [CBK287995],81.9498
22,O=C(O)c1cccc(Sc2cccc(C(F)(F)F)n2)c1 [CBK093592],114.077
